Reference: patent US8716473B2, “Substituted benzotriazines and quinoxalines as inhibitors of P7OS6 kinase” (Sentinel Oncology Limited, priority 2009, dated 2014)
Where a name gives a salt, the structure may show the parent alone. Some entries share one result that the patent states for a list of compounds.

Key:
Assay type in all cases: biochemical
Conditions in all cases: compared with inhibitory activity against p70S6
Aurora-A (h) = molecular target: T1, Aurora-A (h) (Homo sapiens, UniProt O14965); assay: Selectivity for p70S6 kinase versus Aurora A (radiometric kinase assay)
T1 sequence (O14965 1-403): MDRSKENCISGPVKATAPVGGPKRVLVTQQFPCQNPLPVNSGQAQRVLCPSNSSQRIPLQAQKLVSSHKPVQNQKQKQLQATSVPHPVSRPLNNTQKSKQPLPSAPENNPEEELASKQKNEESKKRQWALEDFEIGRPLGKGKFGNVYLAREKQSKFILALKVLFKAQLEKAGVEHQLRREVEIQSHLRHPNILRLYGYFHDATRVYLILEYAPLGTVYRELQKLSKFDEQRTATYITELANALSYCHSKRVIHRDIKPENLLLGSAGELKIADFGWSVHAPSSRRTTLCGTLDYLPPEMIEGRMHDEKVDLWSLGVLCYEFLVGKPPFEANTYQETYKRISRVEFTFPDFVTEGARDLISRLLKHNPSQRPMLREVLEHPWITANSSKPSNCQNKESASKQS

Aurora B kinase = molecular target: T2, Aurora B kinase (Homo sapiens, UniProt Q96GD4); assay: Selectivity for p70S6 kinase versus Aurora B (assays carried out at Millipore UK Ltd)
T2 construct: purchased Millipore UK Ltd
T2 sequence (Q96GD4 whole entry): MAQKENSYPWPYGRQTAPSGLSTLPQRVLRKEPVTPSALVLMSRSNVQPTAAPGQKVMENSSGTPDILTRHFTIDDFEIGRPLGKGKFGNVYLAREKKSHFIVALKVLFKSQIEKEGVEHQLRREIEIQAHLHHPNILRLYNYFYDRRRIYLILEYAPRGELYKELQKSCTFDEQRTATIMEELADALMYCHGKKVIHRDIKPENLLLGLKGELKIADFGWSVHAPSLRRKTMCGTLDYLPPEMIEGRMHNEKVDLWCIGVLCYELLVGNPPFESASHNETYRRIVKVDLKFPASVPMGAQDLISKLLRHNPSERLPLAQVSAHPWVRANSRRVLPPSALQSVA

Akt2 (PKBβ (h)) = Akt2 (PKBβ (h)) (Homo sapiens, UniProt P31751); assay: Selectivity for p70S6 kinase versus Akt2 kinase (radiometric kinase assay)
Akt2 (PKBβ (h)), sequence (P31751 whole entry): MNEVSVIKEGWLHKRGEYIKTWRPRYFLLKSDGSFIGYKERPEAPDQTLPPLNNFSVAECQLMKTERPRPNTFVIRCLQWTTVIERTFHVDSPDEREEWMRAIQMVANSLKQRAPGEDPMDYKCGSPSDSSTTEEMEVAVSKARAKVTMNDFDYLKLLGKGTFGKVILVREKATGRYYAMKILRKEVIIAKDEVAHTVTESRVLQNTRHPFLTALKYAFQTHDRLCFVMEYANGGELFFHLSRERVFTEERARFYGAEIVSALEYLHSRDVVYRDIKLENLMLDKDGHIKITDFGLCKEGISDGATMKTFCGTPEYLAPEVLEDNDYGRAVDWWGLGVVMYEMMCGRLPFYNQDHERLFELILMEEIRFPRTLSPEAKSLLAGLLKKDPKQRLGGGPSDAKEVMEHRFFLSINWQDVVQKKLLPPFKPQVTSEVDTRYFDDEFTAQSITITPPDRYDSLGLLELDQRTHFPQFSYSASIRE

Structure (SMILES) | fold selectivity for p70S6 kinase over Aurora A (Aurora-A (h)) | fold selectivity for p70S6 kinase over Aurora B (Aurora B kinase) | fold selectivity for p70S6 kinase over Akt2 kinase (Akt2 (PKBβ (h)))
COc1cccc(CNc2cnc3cc(-c4cn[nH]c4)ccc3n2)c1 [Example 18, (3-Methoxy-benzyl)-[6-(1H-pyrazol-4-yl)-quinoxalin-2-yl]-amine] | greater than 20 fold | greater than 10 fold | greater than 100 fold
C[C@@H](Nc1cnc2cc(-c3cn[nH]c3)ccc2n1)c1ccccc1 [Example 33, ((R)-1-Phenyl-ethyl)-[6-(1H-pyrazol-4-yl)-quinoxalin-2-yl]-amine] | greater than 20 fold | greater than 20 fold | greater than 100 fold
CN1CCN(c2cccc(CNc3cnc4cc(-c5cn[nH]c5)ccc4n3)c2)CC1 [Example 6, [3-(4-Methyl-piperazin-1-yl)-benzyl]-[6-(1H-pyrazol-4-yl)-quinoxalin-2-yl]-amine hydrochloride] | greater than 5 fold | greater than 2 fold | greater than 20 fold
C[C@@H](c1cccc(F)c1)N(C)c1cnc2cc(-c3cn[nH]c3)ccc2n1 [Example 60, [(S)-1-(3-Fluoro-phenyl)-ethyl]-methyl-[6-(1H-pyrazol-4-yl)-quinoxalin-2-yl]-amine] | greater than 2 fold | greater than 5 fold | greater than 20 fold
CN(Cc1ccccc1)c1cnc2cc(-c3cn[nH]c3)ccc2n1 [Example 2, Benzyl-methyl-[6-(1H-pyrazol-4-yl)-quinoxalin-2-yl]-amine hydrochloride] | greater than 20 fold | greater than 20 fold | greater than 100 fold
COc1cccc(CN(C)c2cnc3cc(-c4cn[nH]c4)ccc3n2)c1 [Example 27, (3-Methoxy-benzyl)-methyl-[6-(1H-pyrazol-4-yl)-quinoxalin-2-yl]-amine] | greater than 2 fold | greater than 2 fold | greater than 100 fold
C[C@H](c1ccccc1)N(C)c1cnc2cc(-c3cn[nH]c3)ccc2n1 [Example 51, Methyl-((R)-1-phenyl-ethyl)-[6-(1H-pyrazol-4-yl)-quinoxalin-2-yl]-amine] | greater than 20 fold | greater than 20 fold | –
C[C@H](Nc1cnc2cc(-c3cn[nH]c3)ccc2n1)c1ccccc1 [Example 24, ((S)-1-Phenyl-ethyl)-[6-(1H-pyrazol-4-yl)-quinoxalin-2-yl]-amine hydrochloride] | – | greater than 5 fold | greater than 20 fold
Fc1ccccc1CNc1cnc2cc(-c3cn[nH]c3)ccc2n1 [Example 13, (2-Fluoro-benzyl)-[6-(1H-pyrazol-4-yl)-quinoxalin-2-yl]-amine hydrochloride] | – | – | greater than 100 fold
c1cc(CNc2cnc3cc(-c4cn[nH]c4)ccc3n2)cc(N2CCOCC2)c1 [Example 7, (3-Morpholin-4-yl-benzyl)-[6-(1H-pyrazol-4-yl)-quinoxalin-2-yl]-amine hydrochloride] | – | – | greater than 20 fold
Clc1cccc(CNc2cnc3cc(-c4cn[nH]c4)ccc3n2)c1 [Example 9, (3-Chloro-benzyl)-[6-(1H-pyrazol-4-yl)-quinoxalin-2-yl]-amine] | – | greater than 20 fold | greater than 100 fold
CN(Cc1ccccc1)c1nnc2cc(-c3cn[nH]c3)ccc2n1 [Example 35, Benzyl-methyl-[7-(1H-pyrazol-4-yl)-benzo[1,2,4]triazin-3-yl]-amine] | greater than 2 fold | greater than 5 fold | –
